# Data: paper PMC11832770, “NADH-bound AIF activates the mitochondrial CHCHD4/MIA40 chaperone by a substrate-mimicry mechanism” (The EMBO Journal, 2025)
# Molecular target: the molecule itself
# Experiment: SEC-MALS; Superdex 200 10/300 in 25 mM HEPES pH 7.5, 150 mM NaCl, 0.02% sodium azide; AIF 33 µM, CHCHD4 50 µM with 5 mM TCEP, complexes with 120 µM NADH, incubated 10 min at room temperature
protein,measurement,value
"AIF([…]), wild type (domain or fragment, Apoptosis-inducing factor (AIF), human, […], lacking the inner mitochondrial membrane tether; Construct from Brosey et al 2016; also called Apoptosis-inducing factor; AIF + NADH; source: E. coli Rosetta2(DE3), purified (Ni-NTA, PreScission cleavage, subtractive Ni-NTA, Superdex 200)) not shown",stoichiometry N,2
